Reference: the supplement of paper PMC3334620
Whole data set: some 33,000 sequences, median “E-score (-0.5 to 0.5)” near -0.054, cut for the highest 2% near 0.35. Some of the results follow.

These sequences were tested against T1, Stb5 (UniProt P38699) (assay: PBM E-score (8-mer binding enrichment) (E-score (-0.5 to 0.5)); higher = stronger / more preferred TF binding; most listed sequences are background and not binding sites). Conditions: protein concentration: 200 nM; construct: GST-full length.
T1 sequence: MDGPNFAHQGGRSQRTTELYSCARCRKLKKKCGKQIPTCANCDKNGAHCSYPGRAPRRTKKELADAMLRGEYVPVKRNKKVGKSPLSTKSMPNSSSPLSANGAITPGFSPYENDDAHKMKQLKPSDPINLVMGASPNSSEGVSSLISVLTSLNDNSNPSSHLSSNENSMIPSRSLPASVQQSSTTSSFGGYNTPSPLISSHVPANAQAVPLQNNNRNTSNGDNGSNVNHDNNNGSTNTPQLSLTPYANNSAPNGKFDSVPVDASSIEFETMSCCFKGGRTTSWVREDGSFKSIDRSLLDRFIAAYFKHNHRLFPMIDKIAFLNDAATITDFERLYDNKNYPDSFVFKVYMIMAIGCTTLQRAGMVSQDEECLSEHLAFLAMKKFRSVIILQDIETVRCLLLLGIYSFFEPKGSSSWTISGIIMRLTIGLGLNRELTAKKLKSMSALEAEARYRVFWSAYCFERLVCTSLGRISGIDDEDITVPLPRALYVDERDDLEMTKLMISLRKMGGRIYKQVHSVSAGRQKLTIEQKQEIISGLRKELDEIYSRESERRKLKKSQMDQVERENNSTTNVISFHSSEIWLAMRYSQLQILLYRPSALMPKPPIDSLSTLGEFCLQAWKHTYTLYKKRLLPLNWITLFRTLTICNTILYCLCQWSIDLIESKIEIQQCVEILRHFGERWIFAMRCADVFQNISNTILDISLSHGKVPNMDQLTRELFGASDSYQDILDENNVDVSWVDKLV
Description: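 Universal 'all 10-mer' protein binding microarrays (Agilent AMADID 015681) probed with GST-tagged S. cerevisiae TFs (full-length or DBD) made by in vitro transcription/translation (PURExpress), about 100-200 nM. Bound TF was detected with fluorescent anti-GST. Each ungapped 8-mer (which stands for itself and its reverse complement) is scored by the PBM enrichment score (E-score), a modified Wilcoxon-Mann-Whitney statistic from -0.5 to +0.5, computed with the Universal PBM Analysis Suite. Scale: above 0.35 generally sequence-specific binding.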

Sequence | PBM E-score
CCTGCAGG | -0.179
CAAGATTG | -0.102
CACCCCTC | 0.0947
AGAAGAGG | -0.206
ATAACTAC | 0.171
GCCACCGC | 0.335
ATCGGTTA | 0.178
GAAGAAAA | -0.0671
CTTTATTC | -0.191
CCCTGGCC | -0.283
AAAGACCG | 0.448
CCGACCTA | 0.307
GAAACTGA | -0.0744
ATCGAGAT | -0.214
GCACTCCC | -0.11
CGTCGCTA | 0.00429
TCGGTCAA | 0.106
CGCCTTGA | 0.0397
CTCCCCGA | 0.225
AAACTTCA | -0.199
GATTAAGC | 0.186
ACATAAGT | -0.0446
CAAATCTG | -0.211
AATTTAGC | -0.036
AAAGTTCT | 0.0158

Sequence | PBM E-score
ACGGCGAT | 0.362
CACTACAA | 0.0255
ACGCGACG | 0.00542
AGAGTGTG | -0.243
ACAGTTAG | -0.198
GACTCGTA | -0.101
ACACATAG | -0.179
CACTATGG | -0.18
CAATCCAG | -0.0614
CTTTACGC | -0.0461
AGCGTCAT | -0.0726
CAAAGCGG | 0.288
CCGTTCCA | 0.245
TCTGACAA | -0.0692
CGCAACTA | 0.108
AGCTATTA | -0.041
GAAGGCGC | 0.0676
ATAATTCA | -0.151
GAGCCTAA | -0.251
CGTTAACG | 0.201
TGCCGTAA | 0.139
CAAGAACC | 0.0235
ACGTGTAA | -0.0694
AAGCGCAG | -0.00786
ATCCTCCC | -0.0326

Sequence | PBM E-score
CATTACCA | -0.0259
AGGCGGGG | 0.38
CAAGGACC | 0.174
CCTTACTA | -0.0929
ACACTGTA | -0.211
TCCCAGAA | -0.15
TCTCTCCA | -0.0209
ATTATTTA | 0.144
ATATTCGA | -0.0397
AGCGTACC | -0.00734
CCCGAATC | 0.126
TCGCCTCA | -0.162
GTATGCGA | -0.0163
CTCCGTTA | 0.299
AATCAATC | -0.0462
GATGTTAA | 0.139
ACAGATAA | -0.0763
ACGTCAAG | -0.153
AAGGCACA | -0.268
GGTCATAA | 0.293
GTGCTCAA | 0.0666
AGTGCCCC | -0.129
CATCGAGG | -0.214
CCTCCCCC | -0.245
TAGGGTAA | 0.0894

Sequence | PBM E-score
ATCATGAT | -0.199
CGCCATTC | 0.108
ACGTGAAA | -0.157
ACCCACTA | 0.0277
GGCGCGAC | 0.152
AGAAAGTA | -0.0728
CCGTGCAC | 0.227
AAATGCCA | 0.107
AAAAGCCA | -0.0171
CCCGTGAG | 0.127
CCCGCAGG | 0.262
TAGTACAA | -0.134
AAGAACGA | -0.042
CTGATCAC | -0.0828
CACTTCTA | -0.0293
TCGGTACA | 0.199
CGCACTTA | 0.368
ACGTCAGG | -0.00722
CATCGGGG | 0.313
AAAGGCTG | -0.205
AGGTCCTA | 0.0577
GCTTGGTA | -0.019
CATGGTAC | -0.0239
GGATGGGA | -0.239
ACGTGAAC | -0.124

Sequence | PBM E-score
ATTGTGGA | -0.277
CGTGGAAC | 0.0496
CCATTCAG | -0.113
CAGATGCC | -0.0851
GACGGGGA | 0.317
CGCGGGCC | 0.256
ATGTAGTC | -0.148
CACTACAG | -0.115
CGGAGTAC | 0.115
GGTAACCA | -0.212
GCTTTGAA | -0.11
TGATCCCA | -0.099
ATTTCTGG | -0.257
ATCTCGAA | -0.21
GGAGGATA | -0.117
CTGTGAGC | -0.0891
TACACGTA | -0.0952
CGTCATCA | -0.0955
CCCTACAC | -0.0507
AATGAGGT | -0.275
CAACGCAC | 0.00162
ATAATAGC | 0.178
CTAGTCTC | -0.14
GCTCCAAA | -0.0354
ATCCTATG | -0.044

Sequence | PBM E-score
AACGAGCA | -0.314
ATCTCCGG | 0.423
ATTAATAA | 0.162
TGAGGGAA | -0.23
ATTTAAGG | -0.0858
AATCATGG | -0.165
AATAGTCA | -0.122
AGCAGGCC | -0.202
CTACGCTA | 0.143
AACGTCTC | -0.36
AAAACAGC | 0.109
ATATCCGA | 0.37
AGTATCCG | 0.0952
ACGGAGTC | 0.325
CCCCGGTA | 0.298
CACCCCCC | -0.14
TGTCGCAA | -0.121
AACCCTAG | -0.232
CACGGACC | 0.241
GTCCGATA | 0.31
CCGTAGTC | 0.0801
GAGGACGC | 0.00133
GAATGAGC | -0.204
GAGCTGGC | -0.244
ATTGTGGC | -0.0738

Sequence | PBM E-score
AAACCTCA | -0.103
AAACGACC | -0.124
ACACAGGA | -0.244
GCATGAGC | -0.0601
CGTCCAGC | -0.00696
ACCTATCC | 0.00358
CATGACTA | -0.186
AATTAATG | 0.132
CCTGTTCA | -0.2
AAATTTTC | -0.0669
ACTTGTGG | -0.238
CACTTAGC | -0.0712
CAAGGAGC | -0.0624
CCCACAAG | 0.00897
AAGGATCG | 0.0334
CTGCTACA | 0.0655
CGCGGAGA | 0.287
ATTCCTGA | -0.186
AAATGACA | -0.207
TCGACTAA | -0.173
CCGTGTCA | 0.253
AGGTACTA | 0.16
